The list shows a part of the results.
B1: 109009399_109010728_3671_CDS_ENSMUSG00000053646_ENSMUST00000072093|mouse|control|control (ssRNA)
RNA: GGGAGUUCUACAGUCCGACGAUCGCUGAACUCUGAGACACCGUGUCCUCUUCCAGGCACCUCCACUGCCACAGUGCCAGUCACCUCCUCCCCGCUGGCUCCAGUGAUGCACACAAGACUACUAGAGACAUCAUACUCCCCAGCCAACAGAGGAUUGAGCAUCA
B2: 53454565_53454685_1203_3pUTR_ENSMUSG00000025024_ENSMUST00000025997|mouse|control|control (ssRNA)
RNA: GGGAGUUCUACAGUCCGACGAUCCGUUUUGCCUCCAUGUUCCAAUGAACUGUUGGAAUAUGUCAAGUGCAAAGCAUCUGAAAAUUCCAAAUUAGGACUUAGAAACGGUCUACACAACAUCAGUUCAAUGGGCCUGACGUUCAGCAACAGAGGAUUGAGCAUCA
B3: chr6:128323885:128323886:+_ENSMUSG00000001517_ENSMUST00000073316|mus_hu|FALSE|FALSE (ssRNA)
RNA: GGGAGUUCUACAGUCCGACGAUCUGGGUCCUCGUCCAGGCCAGGAAAGCUGAUGUCCAGCAGGAUCUUGCUGAGGCUGUCAUUCAUUGUGUCCAGGACCAGGCCUUCUGUCAGAGAACGAUUGGCUGCAAGGCCAGAAACCUGCAACAGAGGAUUGAGCAUCA
B4: chr12:7074771:7074772:-_ENSG00000215021_ENST00000535923|hu_mus|FALSE|FALSE (ssRNA)
RNA: GGGAGUUCUACAGUCCGACGAUCGAGGGCAGAUACAGAAAAGUCCAUCACAUGAUGCCUGGGGCAGGGUGGGCUGUGCUUGACCCCCGAGCUGGCUCCUCCAAGCUGGACAAGUGUGCCAACUUCUCUGGUGGUGGGGUUCUUCAACAGAGGAUUGAGCAUCA
B5: 31989591_31993041_617_CDS_ENSMUSG00000024400_ENSMUST00000025264|mouse|control|control (ssRNA)
RNA: GGGAGUUCUACAGUCCGACGAUCGUUGAAAGUCAGCCCAUUCCACAAGGUGAACUCCCCACUAGAAGCUCCAGUGACCAAUCGUCUUCCUUCCGGGGUCCACCUCACAACAAAUACUGGGCAUUUAACUUUGUUUGUUGAUGUCAACAGAGGAUUGAGCAUCA
B6: chr12:39756943:39756944:-_ENSG00000139116_ENST00000544797|hu_mus|hu_hu_hu_mus_False|8_68 (ssRNA)
RNA: GGGAGUUCUACAGUCCGACGAUCGGUUUGGCUGUUACCCCCAAGGGAAUCCUGCAAGAGUCUUGUCAGCUUGGAAUCUCUGUAAGGGACAUGGGUGGCUCUCUUGCUCUUGUCCCCCAAGGCGCUGAUUACAUUGCCAAGAGCCAACAGAGGAUUGAGCAUCA
B7: chr12:7080122:7080123:+_ENSG00000126749_ENST00000261406|hu_mus|FALSE|FALSE (ssRNA)
RNA: GGGAGUUCUACAGUCCGACGAUCCCGGAGCUUCUUAGGCGGCGUAGUCUCCCAGUCCUGCUCCUGCACUGAAAAUCGCCGCUCACGAGGUUGGAAGCCACCACUGGCCGCAGACAUCUUGUAGGCAGACCGGAAGUUGCACCGCAACAGAGGAUUGAGCAUCA
B8: chr1:212156110:212156111:-_ENSG00000143493_ENST00000366992|hu_mus|FALSE|FALSE (ssRNA)
RNA: GGGAGUUCUACAGUCCGACGAUCUCCAUGAGCUGCGAUGCCCCUGUUGCUAUGGUAACAGCAUUCUUGAGCUAAUUUGACUAAAUCAGAAGAUCUGGGGGAAGAGCCUACAUUUCCGGGAACUACACUGAAGUAAUGUUUAAUCAACAGAGGAUUGAGCAUCA
B9: 43591537_43591657_148_5pUTR_ENSMUSG00000028467_ENSMUST00000030189|mouse|control|control (ssRNA)
RNA: GGGAGUUCUACAGUCCGACGAUCGGCGGUGCCGCGGUACCUGCCCGCAAAGCACCGCCUCUGGGACCCGCCCAGGAGCUCCCGGCGACCUUCGGCCCCGCCCCGGGCUGCGGCUCCAGCGGCUCCAGGGCUGGGUACCGGGUCCAACAGAGGAUUGAGCAUCA
B10: chr10:1038552:1038553:+_ENSG00000107937_ENST00000545048|hu_mus|FALSE|FALSE (ssRNA)
RNA: GGGAGUUCUACAGUCCGACGAUCAUAAAACGGAUGGAUAUCAUCCAAUUUGGGGAAAUCCGACAGAAUCUGUGACAGUCUGUCAUGGUAAUUCUGUUGAGUAAAUUUGACUUUUCUCAUAUAAAAAUGUCGAAUCCGAUGAAUCAACAGAGGAUUGAGCAUCA
B11: chr19:38862730:38862731:-_ENSMUSG00000024999_ENSMUST00000025963|mus_hu|FALSE|FALSE (ssRNA)
RNA: GGGAGUUCUACAGUCCGACGAUCCUUAGGCCACUCCUAGAAUAUGGGAAUAGCUGUUACAUAAAAUACUGUUUUAUAAUUAUAUUAAUAAGAAAAAGCAUUUUACCUGUUCCAAGAGGGGAAAAAAGCUCCUCAUUGAGUAUCCAACAGAGGAUUGAGCAUCA
B12: chrX:91780989:91780990:-_ENSMUSG00000025151_ENSMUST00000026142|mus_mus|motif|central (ssRNA)
RNA: GGGAGUUCUACAGUCCGACGAUCCUCUCUAGAUAGCGUGUUUUGAAGGAACCUGAGGCUUCAGCCUCACUCAGGGAAAACGGUUGCAAAUGAUGAGCAGUAUCUGACAAUUUACUCAACCCAGAAGAAGCCAAUGGCACCGAACAACAGAGGAUUGAGCAUCA
B13: 44134987_44135107_120_5pUTR_ENSMUSG00000032123_ENSMUST00000054708|mouse|control|control (ssRNA)
RNA: GGGAGUUCUACAGUCCGACGAUCGGCCGCCGCCCCGCCGCCUACUCAGCUAACUGGUAAGCCAGGAACAAUCCCGUGGCCUCGGCAGCCGGCAGUGCGGCUCCCAACCCGCAGAGGAUUCCGGCGCCAGCGGGAACAAAACCCCAACAGAGGAUUGAGCAUCA
B14: chr1:46159212:46159213:+_ENSG00000159596_ENST00000372025|hu_mus|hu_hu_hu_mus_True|1_8 (ssRNA)
RNA: GGGAGUUCUACAGUCCGACGAUCUCUGAUCCCUCCCAAGAAAGCUAGGAAACCGGCUCCAUAAGCCAUCUGAGUGAAAGCUAGGACGGGGAUAUAAGACUUUGUUAUUACCAUGAGAAGUGGGGGAGCAACGAAGGGGAUUAGCAACAGAGGAUUGAGCAUCA
B15: chr4:115894766:115894767:+_ENSMUSG00000028698_ENSMUST00000030464|mus_hu|mus_mus_mus_hu_True|58_58 (ssRNA)
RNA: GGGAGUUCUACAGUCCGACGAUCUUCCACACGGAAAUGUACUUCGGGUUUUCCAACGGCCAGUACCAGUCCGGCCAACUACUAGGAACAGGGUCCUCCCCCUCUCUCCUACAGAACACAACAAAAUGCCCCCGAACUUUCAAGCAACAGAGGAUUGAGCAUCA
B16: chr17:56552419:56552420:-_ENSMUSG00000013236_ENSMUST00000086828|mus_mus|mus_mus_mus_hu_False|88_108 (ssRNA)
RNA: GGGAGUUCUACAGUCCGACGAUCAAAGUUUUUUUCUUUUAAAAAAAAAAGAAAAAAACGGGAUACAGUUACACUGAGAGUUUUAAAAGAAAGCUGGAUUCUGGUCCCAGCCCAGUGUCCCCAGGCUGCAGAGCGGGGAGGAGCCAACAGAGGAUUGAGCAUCA
B17: 59478537_59479167_1274_CDS_ENSMUSG00000025237_ENSMUST00000026267|mouse|control|control (ssRNA)
RNA: GGGAGUUCUACAGUCCGACGAUCGUUCUUGCAGUGACCACUGACCAAAGGAGAAGUCCGUGCUGGGGGAGGGAGGCCCACGUGCUGGGGGCACAGGAGACCUGCCUGGGGGCUGGGGGGAUAGCCAAACACCUCUACUUUUGGCAACAGAGGAUUGAGCAUCA
B18: chr11:126104937:126104938:+_ENSG00000197798_ENST00000360194|hu_mus|FALSE|FALSE (ssRNA)
RNA: GGGAGUUCUACAGUCCGACGAUCCUUCCUGGGCUUUUUGGUGGGGGGUUCGCCAUCAUUGAAGAAUCCAAAAAUCUUGUUUUUAUCAGAGGCCUGGCUCCCUGUAGAAGCCAUCCAGUUUCGCGUCUGCUCCAAACGCCACCGCAACAGAGGAUUGAGCAUCA
B19: 56362179_56362299_12499_CDS_ENSG00000151914_ENST00000244364|human|control|control (ssRNA)
RNA: GGGAGUUCUACAGUCCGACGAUCAUGGACAUUAAGCUGCUCCUUGGCUGUUUCCGGUAAACCUCCCAGCGGUUUAGAUGCCAACAGAUGACGCUCCGUGUCAGUCAGCCACUGCUGCAAAUCCUCAAUUUCGCCAUGGAACCCCAACAGAGGAUUGAGCAUCA
B20: chr6:86238017:86238018:-_ENSG00000135317_ENST00000369627|hu_mus|FALSE|FALSE (ssRNA)
RNA: GGGAGUUCUACAGUCCGACGAUCCGGGUGCUGCACAAGUUUCUGCAGAUACUCCUGGAACUCCUCUCUCUUCGACUUCAAAAACUCAUAGUUUUUGGGGCCAAUGAUCCUUUUGGAUGGAAGCUGAGCAUCAGGAAAUGUGCCCAACAGAGGAUUGAGCAUCA
B21: chr17:57652765:57652766:+_ENSG00000108406_ENST00000251241|hu_mus|FALSE|FALSE (ssRNA)
RNA: GGGAGUUCUACAGUCCGACGAUCAUCAUAAUCAUAGUCAACAGACUCCGCCAUCUGAAAGAGCAGCUCGCAACUCUUCUCUAUCUCAAACUGGCCAGUCAGAAAAACUAAGAUGUCUCCAGCCAUUUCAUUCAAAUGAAUAUCCAACAGAGGAUUGAGCAUCA
B22: chr7:54825262:54825263:-_ENSG00000132432_ENST00000352861|hu_hu|hu_hu_hu_mus_False|58_108 (ssRNA)
RNA: GGGAGUUCUACAGUCCGACGAUCCUGACUUGGCUCAUCCACAAACUGCAUUACCUGAUCCAUGUUUGUUGGAUGGCACACCUAAAACGUAGAGACACGUAGCUCAGGAGAGAACCGAGCCCAACGGAACCGGAAGCUGGCAACCAACAGAGGAUUGAGCAUCA

target: T1, UNK ZnF1-3 (human, UniProt Q9C0B0 31-174); assay: nsRBNS (natural sequence RNA bind-n-seq); RBNS binding buffer (assumed for nsRBNS): 25 mM Tris pH 7.5, 150 mM KCl, 3 mM MgCl2, 0.01% Triton X-100, 500 ug/ml BSA, 20 U/ml SUPERase-In, 4 C; UNK is unkempt and MSI1 is Musashi-1; names of the RNAs are library labels; protein concentration not given here; high values mean tight binding
T1 sequence: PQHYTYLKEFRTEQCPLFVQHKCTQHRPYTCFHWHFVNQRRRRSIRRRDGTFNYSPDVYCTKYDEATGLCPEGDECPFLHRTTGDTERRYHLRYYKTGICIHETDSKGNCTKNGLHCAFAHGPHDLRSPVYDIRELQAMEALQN

Row | Binder | binding signal [enrichment R]
1 | B1 | 1.17
2 | B2 | 0.465
3 | B3 | 0.65
4 | B4 | 1.26
5 | B5 | 0.467
6 | B6 | 0.672
7 | B7 | 0.766
8 | B8 | 1.91
9 | B9 | 0.0895
10 | B10 | 0.498
11 | B11 | 1.37
12 | B12 | 1.53
13 | B13 | 0.487
14 | B14 | 1.97
15 | B15 | 0.99
16 | B16 | 1.29
17 | B17 | 1.62
18 | B18 | 0.933
19 | B19 | 1.05
20 | B20 | 1.09
21 | B21 | 1.23
22 | B22 | 0.885
